For 82 compounds, activation results are on record in PubChem BioAssay AID1346428 (National Center for Advancing Translational Sciences (NCATS), 2018).

Several values for one entry are separate records, joined by “and”; a condition that tells them apart may be missing. Identical values can stand only once. In all, about 48,000 compounds went through this assay and about 1,200 (2.5%) were called active. About 2% were inconclusive and are not listed.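 How the source made its calls: active means activation of at least 60% and not above a set upper limit (about 1 call in 100 departs from these limits); inconclusive means activation of 40% to 60%, or above that upper limit; inactive means activation under 40%.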 Some of the results follow.

UniProt O75388, sequence (O75388 whole entry, looked up): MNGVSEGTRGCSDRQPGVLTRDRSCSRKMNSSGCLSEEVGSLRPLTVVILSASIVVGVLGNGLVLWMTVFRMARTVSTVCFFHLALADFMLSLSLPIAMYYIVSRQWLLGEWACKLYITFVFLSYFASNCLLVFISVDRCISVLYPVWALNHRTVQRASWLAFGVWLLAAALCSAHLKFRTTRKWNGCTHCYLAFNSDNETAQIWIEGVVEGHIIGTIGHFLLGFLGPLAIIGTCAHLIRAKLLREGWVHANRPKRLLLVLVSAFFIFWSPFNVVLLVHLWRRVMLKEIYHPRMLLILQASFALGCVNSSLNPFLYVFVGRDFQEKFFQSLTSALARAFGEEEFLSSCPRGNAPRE

For this experiment, the target named is Probable G-protein coupled receptor 32 (Homo sapiens) (UniProt O75388). As to the kind of experiment: qHTS for Agonists of Human Resolvin D1 Receptor DRV1. Further: 0% is about no effect. The following applies: CHO-K1 GPR32 beta-arrestin PathHunter luminescence, 90 min; at 76.9 µM; active compounds read high; zero percent set by DMSO-only wells. Put shortly:
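Luminescent readout of beta-Gal complementation quantifies ligand-induced beta-arrestin association with GPR32 in CHO-K1 cells; 90 min compound incubation at 37 °C, detection 1 h at room temperature.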
(In general: Quantitative high-throughput screening tests each substance at several concentrations.)
For `CC(C)OC(=O)c1c(NC(=O)c2cccc(C(F)(F)F)c2)sc2c1CCCC2`, the activation was inactive: -3.32%.

With `COc1cccc(CNC(=O)c2sc3nc[nH]c(=O)c3c2C)c1`, the activation is inactive: -4.51%.

Take `COc1ccc(CNC(=O)CCC2N=C3c4ccccc4N=C(SCC(=O)NCCc4ccc(OC)c(OC)c4)N3C2=O)cc1` (configuration not stated): the activation is inactive: -13.4%.

Regarding `CN(C)CCCSc1ccccc1NC(=O)/C=C/c1ccccc1`, the activation was inactive: 3.52%.

For the compound `COc1ccc(NC(=O)Cn2ccn(-c3ccc(F)c(F)c3)c(=O)c2=O)cc1Cl`, the activation is inactive: -5.65%.

On to `COCCn1c(C)cc(O)c(C(c2ccccc2)N2CCN(c3ccccc3F)CC2)c1=O` (configuration not stated), for which the activation was inactive: -13.2%.

Regarding `COc1cc([C@@H]2c3cc4c(cc3[C@H](O)[C@H]3COC(=O)[C@H]23)OCO4)cc(OC)c1OC`, the activation was inactive: 36.1%.

Turning to `CCS(=O)(=O)c1ccc(C(=O)N2CCN(c3nc4c(OC)ccc(C)c4s3)CC2)cc1`, the activation is inactive: 10.2%.

Turning to `CC(Nc1ccc(-c2nc(-c3cccnc3)no2)cc1[N+](=O)[O-])c1ccccc1` (configuration not stated), the activation is inactive: 5.98%.

For the compound `O=C(O)CN(CCOCCOCCN(CC(=O)O)CC(=O)O)CC(=O)O`, the activation is inactive: 32.5% and inactive: 0.879%.

For the compound `O=C(Cn1ncc2ccsc2c1=O)N1CCN(c2ccc(Cl)cc2)CC1`, the activation was inactive: 38.5%.

In the case of `Cc1ccc(NC(=O)CCn2nc(C)c3c(C)n(-c4ccccc4)nc3c2=O)cc1Cl`, the activation was inactive: 4.09%.

For the compound `COc1ccccc1-c1nc(CNC(=O)NC2CCCCC2)c(C)o1`, the activation is inactive: 20.4%.

`COc1cccc(NC(=O)CSc2cc(C)c3ccccc3n2)c1`: the activation is inactive: 19%.

Regarding `Cc1ccc2c(Sc3ccc(Cl)cc3)c(C(=O)N3CCCCC3)[nH]c2c1`, the activation is inactive: -36.1%.

Regarding `COc1ccc(NC(=O)c2c(-c3ccc(C)cc3)nnc3ccccc23)cc1OC`, the activation is inactive: -23.4%.

Take `CC1CCCCN1Cc1nc2c(c(=O)n(C)c(=O)n2C)n1Cc1ccc(Br)cc1` (configuration not stated): the activation is inactive: -2.54%.

Turning to `CC(C)c1ccc(NC(=O)c2cn(C3CCCC3)c(=O)c3c2c2ccccc2n3C)cc1`, the activation was inactive: -5.11%.

Regarding `CC(C)C[C@H](NC(=O)[C@@H](O)[C@H](N)Cc1ccccc1)C(=O)O`, the activation is inactive: 3.24%.

As to `CCCOc1ccc(NC(=O)CC2C(=O)N(c3cccc(OC)c3)C(=O)N2CCc2ccncc2)cc1` (configuration not stated), the activation was inactive: -20.8%.

Take `Cc1cc(C)c(NC(=O)CSc2nc(=O)n(Cc3ccncc3)c3c2CCC3)c(C)c1`: the activation was inactive: -1.8%.

`O=C(CSc1nnc2scc(-c3ccc(Cl)cc3)n12)Nc1ccc(F)cc1`: the activation is inactive: -11.9%.

For `Cc1ccc(NC(=O)n2ncc3c(C)cccc32)c(C)c1`, the activation was inactive: -18.9%.

In the case of `CCc1nn(CC(=O)N2CCN(c3cccc(C)c3)C(C)C2)c(=O)c2cc3sccc3n12` (configuration not stated), the activation was inactive: -8.42%.

As to `CCOCCCNC(=O)C(c1ccc(C)cc1)N(Cc1ccc2c(c1)OCO2)C(=O)c1ccccc1O` (configuration not stated), the activation is inactive: -15.9%.

For `COc1cccc(C2=CC(c3ccccc3F)n3ncc(C(=O)Nc4ccc(F)cc4)c3N2)c1` (configuration not stated), the activation was active: 70.5%.

`Cc1ccc(Nc2c(-c3cccnc3)nc3ccc(C)cn23)cc1`: the activation is inactive: -20.9%.

Turning to `COC(=O)[C@H]1[C@H]2C[C@@H]3c4[nH]c5cc(OC)ccc5c4CCN3C[C@H]2C[C@@H](OC(=O)c2cc(OC)c(OC)c(OC)c2)[C@@H]1OC`, the activation was inactive: -5.02% and inactive: -18.6%.

As to `CCc1ccc(CNC(=O)c2ccc3c(c2)c(C)c(C)n3Cc2ccccc2)cc1`, the activation was inactive: -21.5%.

Turning to `O=C(NC1CCCCC1)c1ccc(CSc2nc3ccncc3n2Cc2cccc(F)c2)cc1`, the activation was inactive: -12%.

For the compound `Cc1ccc(N(C)C(=O)Cn2ncc3c([nH]c4ccccc43)c2=O)cc1C`, the activation was inactive: 48.4%.

As to `O=C(CSc1nc2c([nH]c3ccccc32)c(=O)n1-c1ccccc1)Nc1cccc(C(F)(F)F)c1`, the activation is inactive: -28.9%.

Take `CCOC(=O)N1CCc2c(sc(NCc3cc(OC)ccc3OC)c2C(=O)Nc2cc(OC)ccc2OC)C1`: the activation is inactive: 10.9%.

`CCOCCCNC(=O)C1CCN(c2nc3ccc(C)cc3[nH]2)CC1`: the activation is inactive: -1.18%.

For `COC(=O)c1cc(-c2ccc(Cl)cc2)c2c(=O)[nH]c(=O)n(C)c2n1`, the activation is inactive: 35%.

`Cc1ccc(S(=O)(=O)NC(=O)NC2CCCCCCC2)cc1`: the activation is inactive: -6.01%.

Turning to `Cc1ccc(Cn2c(=O)n(CCc3ccccc3)c(=O)c3sc4ccccc4c32)cc1`, the activation was inactive: 7.41%.

Consider `COc1ccc(N2CCN(C(=O)Cn3cnc4sc(C)c(S(=O)(=O)N5CCCCC5)c4c3=O)CC2)cc1`, for which the activation is inactive: -11.7%.

Consider `Cc1ccc(NC(=O)CCn2cccn2)c(C)c1`, for which the activation is inactive: -0.265%.

Turning to `COc1ccc(NC(=O)CCc2c(C)nn(-c3ccc(N4CCCC4)nn3)c2C)cc1Cl`, the activation was inactive: -11.4%.

Take `O=C(Nc1nnc(S(=O)(=O)N2CCCCCC2)s1)c1ccc(Cl)cc1`: the activation is inactive: 15.8%.

On to `COc1ccc(NC(=O)CC(C)S(=O)(=O)c2cc3c(cc2C)NC(=O)CO3)cc1OC` (configuration not stated), for which the activation is inactive: 6.58%.

In the case of `Cc1ccc2c(=O)cc(C(=O)Nc3c(C(=O)c4ccc(F)cc4)oc4ccccc34)oc2c1C`, the activation is inactive: -14.8%.

As to `CN=c1nc(-c2ccccc2)n(-c2ccccc2)s1`, the activation is inactive: -2.25%.

On to `CSc1nn(CC(=O)Nc2cc(C)ccc2C)c(N)c1S(=O)(=O)c1ccccc1`, for which the activation was inactive: 27.2%.

For `COc1ccccc1CNC(=O)C1CCN(c2nnc(C)c3c(C)n(-c4ccccc4)nc23)CC1`, the activation is inactive: -18.4%.

For the compound `CCOC(=O)Cn1c(=O)oc2cc(S(=O)(=O)N3CCN(c4ccc(F)cc4)CC3)ccc21`, the activation was inactive: 12.8%.

As for `CCC(CC)C(=O)Nc1cc(-c2nc3cccnc3s2)ccc1C`, the activation is inactive: -12%.

Consider `Cc1cccc(C)c1OC(=O)CSc1nnc(-c2ccc3c(c2)OCO3)o1`, for which the activation is inactive: -7.72%.

With `Cc1ccc(NC(=O)CN2C(=O)CC(c3ccc(C)c(C)c3)=Nc3ccccc32)cc1`, the activation is inactive: -0.68%.

On to `COc1ccc(CCNC(=O)c2c(C)oc3ncn(CC(C)C)c(=O)c23)c(OC)c1`, for which the activation was inactive: -0.501%.

As for `COc1ccc(Nc2c(-c3ccsc3)nc3nc(C)cc(C)n23)cc1`, the activation was inactive: -32.7%.

On to `CC(C)C(=O)Nc1nnc(S(=O)(=O)N2c3ccccc3CC2C)s1` (configuration not stated), for which the activation is inactive: -1.7%.

For `COC(=O)c1c(C)sc(-c2c(-c3ccc(OC)c(F)c3)[nH]c3c2c(=O)n(C)c(=O)n3C)c1O`, the activation is inactive: 29.5%.

Take `CCSc1nc2ccccc2c(OCc2cc(C(=O)OC)ccc2OC)c1C(=O)OC`: the activation is inactive: -6.99%.

As to `Cc1ccc(C(C)C)c(OCC(=O)Nc2ccc(O)c(-c3nc4cc(Cl)ccc4o3)c2)c1`, the activation was inactive: -27.6%.

With `CCCOc1cccc(C(=O)Nc2cccc(NC(=O)c3ccc(Cl)cc3Cl)c2)c1`, the activation is inactive: -6.6%.

As to `O=C1CCSC2(C(=O)N(Cc3ccc(F)cc3)c3ccccc32)N1c1cccc(F)c1` (configuration not stated), the activation was inactive: -21.7%.

Turning to `CCN1C(=O)c2ccccc2S(=O)c2ccc(C(=O)NCc3ccc(Cl)cc3)cc21` (configuration not stated), the activation is inactive: -27.2%.

For `CCN(c1cccc(C)c1)S(=O)(=O)c1c(C)nc2sc(C)cn2c1=O`, the activation is inactive: -14.8%.

For the compound `O=C(Cn1cc(C(=O)c2cccs2)c2ccccc21)Nc1ccc(Br)cc1`, the activation was inactive: -15.4%.

For the compound `CCOC(=O)c1c(-c2ccccc2)oc2ccc(OCc3cccc(Br)c3)cc12`, the activation was inactive: -13.6%.

Regarding `COc1ccc(C(=O)Oc2cc(-c3ccc(OC)c(OC)c3)cc(=O)c3c(C)oc(C)c23)cc1`, the activation is inactive: -18.1%.

Take `CCS(=O)(=O)Nc1ccc(-c2cn3c(C)csc3n2)cc1`: the activation is inactive: -8.78%.

As for `COc1cccc(C(c2sc3nc(-c4ccco4)nn3c2O)N2CCN(C)CC2)c1` (configuration not stated), the activation is inactive: -9.37%.

Regarding `COc1ccc(CNC(=O)CN(C)S(=O)(=O)c2ccc3c(c2)c(=O)n(C)c(=O)n3C)cc1`, the activation is inactive: 10.8%.

Take `Cc1ccc(CNC(=O)Cn2c3ncccc3c(=O)n2-c2ccc(C)cc2)cc1`: the activation was inactive: -20.7%.

As to `COc1ccc(C)c2sc(N3CCN(C(=O)c4ccco4)CC3)nc12`, the activation is active: 86%.

As to `CCOc1ccc(CNC(=O)CSc2c3c(nc4ccc(Cl)cc24)CCCC3)cc1`, the activation was inactive: -6.74%.

With `COc1ccccc1N1CCN(c2cc(C)nc3nncn23)CC1`, the activation was inactive: 7.61%.

As for `CC(C)c1cc(-c2nc(-c3cccc(Cl)c3)no2)n[nH]1`, the activation is inactive: 24.5%.

On to `Cc1nn2c(=O)cc(COC(=O)c3ccc(NC(=O)COc4ccccc4F)cc3)nc2s1`, for which the activation was active: 62.4%.

On to `Cc1ccc2oc(C(=O)Nc3sc4c(c3C(=O)NCc3ccco3)CCC4)cc(=O)c2c1`, for which the activation was inactive: 29.6%.

`Cc1nc2c(c(C)nn2C(C)(C)C)c(C)c1CCC(=O)Nc1ccc(F)cc1`: the activation was active: 74.1%.

On to `CC(=O)c1ccc(N2CCN(C(=O)CCCn3c(=O)[nH]c4ccsc4c3=O)CC2)cc1`, for which the activation is inactive: 35.9%.

As for `Cn1c(C(=O)NCc2cccc(Cl)c2)cc2oc3ccccc3c21`, the activation is inactive: -11.7%.

In the case of `Cc1nn(CC(=O)NCc2ccc(N(C)C)cc2)c(=O)c2nn(-c3ccccc3)c(C)c12`, the activation was inactive: -4.33%.

Turning to `COc1ccc(C(CC(=O)Nc2ccc(Br)cn2)N2Cc3ccccc3C2=O)cc1` (configuration not stated), the activation was inactive: -19.8%.

For the compound `COCCCNC(=O)c1ccc(Cn2c(=O)c3cccn3c3cccnc32)cc1`, the activation is inactive: 5.37%.

For the compound `Cc1ccc(Cn2c(CN3CCN(c4cccc(Cl)c4)CC3)nc3c2c(=O)n(C)c(=O)n3C)cc1`, the activation is inactive: -36.5%.

Consider `O=[N+]([O-])c1ccc(O)c(-c2ccnc3cc(-c4ccccc4)nn23)c1`, for which the activation was inactive: -25%.

`COc1ccccc1CCNC(=O)C1CCN(c2nnc(C)c3c(C)n(-c4ccc(C)cc4)nc23)CC1`: the activation is inactive: -12.9%.
